Source: PubChem BioAssay AID652104 (National Center for Advancing Translational Sciences (NCATS), 2013)
In all, about 410,000 compounds went through this assay and about 7,200 (1.8%) were called active. The shares of active, inactive and inconclusive entries below differ from those in the screen. Calls follow the shape of the dose curve; as a rule, active = well fitted activation curve with a large enough effect; inconclusive = small, poorly fitted or top-dose-only effect, or another doubt; inactive = no such curve, though single readings can be large or run the other way. Potencies of inconclusive entries are left out as doubtful fits.
Potency is read from the fitted curve at half-maximal effect; tags tell the direction and shape of the fitted curve.

Assay: qHTS of TDP-43 Inhibitors; also: nearly all actives have a fitted effect of over 50% in size; as to growth rescue (activation): % of control where 0% means no effect
Conditions: TDP-43 expressing yeast growth rescue, BacTiter-Glo, 24 h; growth rescue (activation): at 46.1 µM (top of the series) unless noted
How it was run: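 In this qHTS, compounds that restore growth of yeast expressing TDP-43 appear as activators. Cells (OD600=0.02, galactose medium, raffinose-pregrown) are incubated with compound 24 hr at 30 deg C and growth is quantified by BacTiter-Glo.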
For CCN(CC)c1ccc(NC(=O)CCc2c(C)nc3ncnn3c2C)c(C)c1, the Potency was “inactive”.
In the case of O=C(CSc1ccccn1)N/N=C/C=C/c1ccccc1, the Potency is reported as inconclusive [activator, partial curve].
For Cc1cccn2c(=O)c(C(=O)N3CCN(c4ccc(Cl)cc4)CC3)cnc12, the Potency was “inactive”.
In the case of O=C(c1ccco1)N1CCN(S(=O)(=O)c2ccc(Cl)cc2)CC1, the Potency is reported as inconclusive [activator, single point].
For O=C(C#Cc1ccccc1)c1ccccc1, the growth rescue (activation) was inconclusive: -66.9% [activator].
For COc1ccccc1CNc1nc(-c2ccco2)nn1S(C)(=O)=O, the Potency was “inactive”.
For CCCCCC(=O)N1C[C@H](n2cc(-c3ccc(F)cc3)nn2)[C@@H](O)C[C@@H]1c1ccc(C)cc1, the Potency was inconclusive [activator, single point].
In the case of COc1ccc(-c2c(-c3ccc(OC)nc3)c3ccccc3n2C)cc1, the Potency is reported as inconclusive [activator, partial curve].
With CCNC(=S)N(Cc1ccc(OC)cc1)C1CC(=O)N(c2ccc(OCC)cc2)C1=O (stereo not given) the Potency was “inactive”.
In the case of Cn1c(NC(=O)CCC2CCCCC2)cc(=O)n(C)c1=O, the Potency is reported as inconclusive [activator, partial curve].
With O=C(NCCc1ccccc1)c1cccc2c1C(=O)N(C1CCCCC1)C2 the Potency was inconclusive [activator, single point].
With COc1cc(C(O)c2nc(-c3ccccc3C)cs2)ccc1F (stereo not given) the Potency was inconclusive [activator, single point].
With Cc1ccc(C)c(S(=O)(=O)Nc2ccc(O)cc2)c1 the Potency was “inactive”.
With COc1ccc(N2C(=O)CSC23C(=O)N(Cc2cccc(C(F)(F)F)c2)c2ccccc23)cc1 (stereo not given) the Potency was inconclusive [activator, full curve, poor fit].
In the case of O=C(c1ccccc1)C(O)(Cc1ccccc1)c1ccccc1 (stereo not given), the Potency is reported as inconclusive [activator, single point].
In the case of C#CCOc1c(Cl)cc(/C=C2/C(=O)ON=C2C)cc1OC, the Potency is reported as active: 15.8 µM.
With COc1ccc(N(C(=O)c2cnccn2)C(C(=O)NC2CCCCC2)c2cc(OC)c(OC)c(OC)c2)cc1 (stereo not given) the Potency was “inactive”.
In the case of O=S1(=O)CCO[C@H]2Cc3ccccc3[C@H]2N1Cc1cccc(Cl)c1, the Potency is reported as inconclusive [activator, single point].
In the case of CCOc1ccc(-n2ccnc2SCC(=O)Nc2cccc3ccccc23)cc1, the Potency is reported as inconclusive [activator, full curve].
For Cc1cc(OC(=O)c2ccccc2Br)cc(=O)n1C, the Potency was inconclusive [activator, single point].
